In test [1] the target is T1, human MSLN-FL-his protein (human, UniProt Q13421 296-580).
T1 construct: also called hMSLN-FL-his; not shown: histidine tag
Description: ELISA, coated antigen, 0.2 nM antibody.

Test [2] concerns the target T2, human MSLN-R3-his protein (human, UniProt Q13421 487-598).
T2 construct: also called hMSLN-R3-his; not shown: histidine tag
Description: ELISA, coated antigen, 0.2 nM antibody. (In an ELISA, binding on a coated surface is turned into a signal by an enzyme label.)

Test [3] concerns the target T3, human MSLN-R2-his protein (human, UniProt Q13421 391-486).
T3 construct: also called hMSLN-R2-his; not shown: histidine tag
Nature of the test: ELISA, coated antigen, 0.2 nM antibody.

For test [4], the target named is T4, human MSLN-R1-his protein (human, UniProt Q13421 296-390).
T4 construct: also called hMSLN-R1-his; not shown: histidine tag
T4 chain: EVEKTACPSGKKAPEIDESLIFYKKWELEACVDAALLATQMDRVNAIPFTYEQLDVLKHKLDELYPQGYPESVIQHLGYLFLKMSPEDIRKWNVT
Nature of the test: ELISA, coated antigen, 0.2 nM antibody.

Test [5] has as its target T2, human MSLN-R3-his protein. Nature of the test: ELISA, coated antigen, 1 nM antibody.
Test [6] concerns the target T2, human MSLN-R3-his protein. Nature of the test: ELISA, coated antigen, 0.1 nM antibody.
In test [7] the target is T1, human MSLN-FL-his protein. Description: ELISA, coated antigen, 0.1 nM antibody.
Test [8] addresses T1, human MSLN-FL-his protein. Nature of the test: ELISA, coated antigen, 1 nM antibody.
The target of test [9] is T2, human MSLN-R3-his protein. Nature of the test: ELISA, coated antigen, 100 nM antibody.
Test [10] concerns the target T1, human MSLN-FL-his protein. Description: ELISA, coated antigen, 0.01 nM antibody.
The target in test [11] is T2, human MSLN-R3-his protein. Description: ELISA, coated antigen, 0.001 nM antibody.
For test [12], the target named is T1, human MSLN-FL-his protein. Nature of the test: ELISA, coated antigen, 20 nM antibody.
Test [13] deals with T2, human MSLN-R3-his protein. Description: ELISA, coated antigen, 20 nM antibody.
In test [14] the target is T3, human MSLN-R2-his protein. Description: ELISA, coated antigen, 20 nM antibody.
Test [15] deals with T4, human MSLN-R1-his protein. Description: ELISA, coated antigen, 20 nM antibody.
Test [16] deals with T1, human MSLN-FL-his protein. Description: ELISA, coated antigen, 100 nM antibody.
In test [17] the target is T1, human MSLN-FL-his protein. Nature of the test: ELISA, coated antigen, 0.0001 nM antibody.
The target of test [18] is T1, human MSLN-FL-his protein. Nature of the test: ELISA, coated antigen, 0.001 nM antibody.
The target in test [19] is T1, human MSLN-FL-his protein. Description: ELISA, coated antigen, 10 nM antibody.
Test [20] addresses T2, human MSLN-R3-his protein. Description: ELISA, coated antigen, 0.01 nM antibody.
The target of test [21] is T1, human MSLN-FL-his protein. Nature of the test: ELISA, coated antigen, 0 nM antibody (blank).
The target in test [22] is T2, human MSLN-R3-his protein. Description: ELISA, coated antigen, 0.0001 nM antibody.
For test [23], the target named is T2, human MSLN-R3-his protein. Nature of the test: ELISA, coated antigen, 10 nM antibody.
Test [24] deals with T2, human MSLN-R3-his protein. Nature of the test: ELISA, coated antigen, 0 nM antibody (blank).
In test [25] the target is T5, human MSLN-R3-his protein (human, UniProt Q13421 487-598).
T5 construct: MSLN-R3 = Met487-Ser598; also called hMSLN-R3-his; not shown: histidine tag
Nature of the test: ELISA.

T2 sequence (Q13421 495-606): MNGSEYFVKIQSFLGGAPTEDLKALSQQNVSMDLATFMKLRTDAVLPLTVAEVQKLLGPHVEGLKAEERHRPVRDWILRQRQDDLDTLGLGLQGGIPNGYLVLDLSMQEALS
T3 sequence (Q13421 other isoform, or with tags, fused parts or gaps): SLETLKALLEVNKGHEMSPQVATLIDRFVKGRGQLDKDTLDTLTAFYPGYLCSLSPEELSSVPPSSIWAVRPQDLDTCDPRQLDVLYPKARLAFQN

B1: NB149-81 VHH-hFc (Fc fusion)
chain: EVQLVESGGGLVQAGGALRLSCAASERTFSSSSMGWFRQAPGKEREFVAAINRIGGHIYYADSVKGRFTISKDNAKNTVYLQMSSLKPEDTAVYYCASSRIYSHSARDYDYWGQGTQVTVSS[human IgG1 Fc with changes not written out]
notes: no linker stated
With B1, the OD450 nm in [1] is 2.31 OD450 nm; in test [2], 0.05 OD450 nm; in test [3], 0.08 OD450 nm; in test [4], 0.05 OD450 nm; in test [5] it was 0.04 OD450 nm; in test [6], 0.05 OD450 nm. Moreover, the OD450 nm worked out at 0.22 OD450 nm in [7]; 1.25 OD450 nm in [8]; 0.06 OD450 nm in test [9]; 0.06 OD450 nm in [10]; 0.05 OD450 nm in test [11]; 2.54 OD450 nm in [12]. The OD450 nm was found to be 0.05 OD450 nm in test [13]; 0.12 OD450 nm in [14]; 0.06 OD450 nm in test [15]; 2.37 OD450 nm in test [16]; 0.04 OD450 nm in test [17]; 0.05 OD450 nm in [18]. The OD450 nm in test [19] amounted to 2.09 OD450 nm; in [20] it was 0.05 OD450 nm; in test [21], 0.05 OD450 nm; in [22], 0.05 OD450 nm; in test [23] it was 0.05 OD450 nm; in test [24] it was 0.05 OD450 nm.

B2: NB149-81 VHH-hFc (Fc fusion)
chain: EVQLVESGGGLVQAGGALRLSCAASERTFSSSSMGWFRQAPGKEREFVAAINRIGGHIYYADSVKGRFTISKDNAKNTVYLQMSSLKPEDTAVYYCASSRIYSHSARDYDYWGQGTQVTVSS[human IgG1 Fc with changes not written out]
With B2, in test [25], the binding result was “no binding (tested: starting concentration of 100 nM)”.

B3: NB149-97 VHH-hFc (Fc fusion)
chain: EVQVVESGGGLVQAGGGLRLSCAASERTFSSSSIGWFRQAPGKEREFVATMNRIGGHTFYADPVKGRFTISRDNAANTVYLQMSSLKPEDAAVYYCASSRIYSHSPRDYDYWSQGTQVTVSS[human IgG1 Fc with changes not written out]
For the molecule B3, in [25], the binding result is reported as “no binding (tested: starting concentration of 100 nM)”.

B4: NB149-70 VHH-hFc (Fc fusion)
chain: QVQLVESGGGLVQPGGSLRLSCAASGSIFSGNAVAWYRQAPGKEREAVAVITRDGDTKYADSVKGRFTISRYNAKNIAYLQMNSLKPEDTAVYYCNTARGAAVDSWGQGTQVTVSS[human IgG1 Fc with changes not written out]
Regarding B4, in test [25], the binding result was “no binding (tested: starting concentration of 100 nM)”.

B5: NB148-35 VHH-hFc (Fc fusion)
chain: EVQVVESGGGLVQPGGSLRLSCGVSGSILALNTMRWYRQTPGNQREWVASIYSSGGSTGYADSVKGRFIISRDSAKNMMSLQMNSLKSEDTAVYYCNVQTPLNVYWGQGTQVTVSS[human IgG1 Fc with changes not written out]
B5: the binding result in test [25] is on record as “no binding (tested: starting concentration of 100 nM)”.

B6: NB149-34 VHH-hFc (Fc fusion)
chain: QLQLVESGGGLVQPGGSLRLSCAASGSVNSITAMGWYRQGPGNERELVAVITDRGRASYADSVKGRFAISMDNDKHTVYLQMDSLKPEDTAVYYCNAHRRTWPHPGDYWGQGTQVTVSS[human IgG1 Fc with changes not written out]
For the molecule B6, the binding result in test [25] is on record as “no binding (tested: starting concentration of 100 nM)”.

B7: NB149-31 VHH-hFc (Fc fusion)
chain: EVQVVESGGGLVQPGGSLRLSCAASGITFSGNYGGWFRQAPGEQRELVASMSSALGTKYADPVKGRFTISTDTAKNTVDLQMNSLGPEDTAVYYCYARVRLSRGGWGSEYWGQGTQVTVSS[human IgG1 Fc with changes not written out]
In the case of B7, in test [25], the binding result is “no binding (tested: starting concentration of 100 nM)”.

B8: NB148-46 VHH-hFc (Fc fusion)
chain: EVQLVESGGGLVQAGGSLRLSCAASGSTFSSYPMGWYRQAPGKQRELVAAISSGGSTNYADSVKGRFTISRDNAKNTVYLQMNSLKPEDTAVYYCNTRSPRVPNDSWGQGTQVTVSS[human IgG1 Fc with changes not written out]
Regarding B8, the binding result in test [25] is “no binding (tested: starting concentration of 100 nM)”.

B9: NB148-27 VHH-hFc (Fc fusion)
chain: EVQVVESGGGLVQAGASLRLSCASSGRTISPIAMAWFRQAPGKERELVAGLTWTGRTYYSDSVKGRFTISRDNAKNTVYLQMDSLKFEDTAVYFCAAGDNPDRRGSSWSSSSVYEYWGQGTQVTVSS[human IgG1 Fc with changes not written out]
On to B9, for which the binding result in test [25] was “no binding (tested: starting concentration of 100 nM)”.

B10: NB149-95 VHH-hFc (Fc fusion)
chain: QVQLVESGGGLVQAGGSLRLSCTASESGFSANYMGWYRQEAPGKERELVATINRFGSTNYADSVKGRFTISRDNAKNTVYLQMNSLKSEDTGVYYCRIMRPGNWYWGQGTQVTVSS[human IgG1 Fc with changes not written out]
For B10, the binding result in [25] is “no binding (tested: starting concentration of 100 nM)”.

B11: NB148-88 VHH-hFc (Fc fusion)
chain: QLQLVESGGGLVQPGGSHRLSCAVSVSTFTRYAMRWYRQAPGKEREWLTSIYSDGSSAYADSVKDRFTISLDNAKNMLYLQMNSLKPEDTAVYYCNANVDSKAYWGQGTQVTVAS[human IgG1 Fc with changes not written out]
As to B11, the binding result in [25] is reported as “no binding (tested: starting concentration of 100 nM)”.

Source of the values: US20240124563A1 (NANJING ZAIMING PHARMACEUTICAL, published 2024).
